Measured values as given in the supplement of paper PMC5499739.
The full ranking holds about 16,000 sequences; the median of “Z-score” is about -0.37, and the highest 2% start at about 3.2. The list shows a part of the results.

Tested on: RBM10 RRM1-ZnF (GST-tagged construct)
Test: RNAcompete 7-mer binding Z-score; higher = stronger binding preference
Summary of the method: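 A designed pool of 241 399 RNAs, each up to 41 nt and transcribed from microarray-derived DNA templates, was used at 1.5 nmol with 20 pmol of GST-tagged RBM10 constructs. The mixture, in 1 ml Hepes pH 7.8 buffer with KCl, NaCl, glycerol, DTT, BSA and glutathione Sepharose beads, was held 30 min at 4°C and then washed four times for 2 min at 4°C. Bound RNA was read out by microarray hybridisation, and enrichment of each heptamer motif was scored as a one-sided Z-score over the probes carrying it.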

Sequence	RNAcompete 7-mer binding Z-score
UGUCUGG	0.339
ACACCCU	-0.854
CUCCUCU	-0.681
CCAUAUA	-0.681
UUGAUGU	-0.34
ACAGACC	-0.522
CCAUUAC	-0.873
UUGUGCC	-0.535
UGUCGAG	0.00729
UUACGAU	-0.539
GACUUAG	-0.256
CCUUUGG	-0.522
GAGAAAA	0.361
GAAUGCG	0.501
CUGCACU	-0.522
CGCAGCU	-0.503
UUCGCUG	-0.636
GUUAAUG	0.768
UACUAAA	-0.545
GUCUGCC	-0.513
GACUCGU	-0.685
GGACACC	0.748
GCGGGGU	3.75
UCAUAGC	-0.769
CAAAAGU	-0.558

Sequence	RNAcompete 7-mer binding Z-score
ACCUGAA	-0.707
GGUGCGC	1.51
CCUGGUC	-0.392
UCAAAUC	-0.824
UUUACGG	-0.223
AUAUGGC	0.03
GCAAACA	-0.0999
GACACCU	-0.633
UCGGACU	-0.383
AAUCCAC	-0.662
AGGCGGG	2.83
CUCAUGU	-0.73
CUGGUUA	0.128
AACCUUU	-0.932
AUAACCC	-0.782
AAAACUA	-0.477
CCCUACG	-0.555
UGUCCCA	-0.522
GCCGAUC	-0.717
GUUGCGA	0.485
GAUUAGA	0.189
UGGGAUU	1.9
CGGGAAG	2.18
GCCAGGA	0.436
UGAAGAA	0.228

Sequence	RNAcompete 7-mer binding Z-score
GUGUGAG	1.95
UUCUCGU	-0.737
CCACCCA	-0.327
GAAAUAC	-0.327
GGCUUAU	-0.344
GUCCUCG	-0.493
UGCCCCA	-0.503
AUGAUAA	-0.119
GGUAAUU	0.729
AGACGAG	0.826
UUGCACA	-0.707
UUUAACA	-0.539
GCGUGGC	1.12
UCCUACU	-0.837
CAGAGGA	1.41
UGACCUA	-0.776
GCGUCCG	-0.558
GCCGAUU	-0.737
CUGCACG	-0.522
CUAGUCU	-0.743
GGCGAAU	0.703
UCUACCC	-0.743
UCAGCAU	-0.23
GCGGAUU	0.794
UGUCUAA	-0.707

Sequence	RNAcompete 7-mer binding Z-score
UGUUUGA	-0.116
UGUAGUG	0.748
ACUUUCG	-0.854
AAGCUAU	-0.535
CCACAUC	-0.659
AGGCCGU	-0.574
AAGAUCA	-0.181
AGAGAGC	0.248
AUCCACU	-0.668
CCAAAAA	-0.795
ACGUGUG	0.527
CGGAUAU	0.517
UUGGCAA	0.14
UCUCACU	-0.646
ACCCAUU	-0.951
AAGCCGC	-0.539
CGACGCG	-0.0739
GAGUUGC	0.192
CGGACAC	-0.0285
UAAGCCC	-0.779
CAGGCCC	-0.548
GGCCUGU	-0.379
GGUCGAG	1.67
UUCAAGC	-0.753
UUGAUUG	-0.0447

Sequence	RNAcompete 7-mer binding Z-score
CACGGAA	0.683
GGCUAGA	0.618
GCACACG	-0.0707
UAGCGGG	2.33
CAUGCUG	-0.454
AAUUACU	-0.535
UCGUAAA	-0.707
GUCUGGG	1.42
GUCGGCC	-0.49
UUAUAAC	-0.704
GGUUCAA	0.202
CAAGACG	-0.207
AUAUAGA	-0.145
CGUAUAG	-0.132
CAGUUAC	-0.347
GUCGCAG	-0.035
AGCACGG	0.949
AGCGGCU	0.186
CGCACUG	-0.379
CAUCGCG	-0.396
CCCCGCU	-0.444
GGGAGUU	2.08
AAGCUCU	-0.733
ACACAAC	-0.607
GGGCGCA	1.42

Sequence	RNAcompete 7-mer binding Z-score
UCAUCAG	-0.565
CGGGUGA	2.66
GCUGUCG	-0.373
GUACGCC	-0.214
AUGGUAG	2.74
CACAAAU	-0.652
AAGUUUU	-0.444
AGUCGUG	0.124
AAGAGGU	1.55
CUGGAUA	0.436
CAUUUGC	-0.932
CGUUUAC	-0.733
CCUUGCU	-0.906
GCUGCAA	-0.184
UACCUAC	-0.724
CCAGCGC	-0.422
CGUUGAG	-0.0512
GAGGUGA	2.56
GCGCCCA	-0.655
CCCGACG	-0.0902
CCCGGGC	-0.0479
GCUUGUA	-0.571
GGAAAUU	0.709
CAGAUAA	-0.269
AGCCACU	-0.727

Sequence	RNAcompete 7-mer binding Z-score
UGGAAGC	1.67
GUCGGUG	1.47
AGAUUUU	-0.594
CCUUCAU	-0.896
UGAGUUC	-0.451
UCUUCGA	-0.834
CUUGAGA	-0.506
CUUCUCG	-0.678
UGCAGAC	-0.314
UAAAGUG	0.17
UAGCUAC	-0.591
UGCCUGU	-0.698
CACGACC	-0.688
GAGUGUU	0.625
AACACAC	-0.513
CCCUCCU	-0.558
CCAACAA	-0.73
GUUUAUC	-0.513
UUUAAAC	-0.876
UCGGUCC	-0.613
GAUAUCU	-0.548
UCGAAGG	1.03
UUGUGCU	-0.392
CAACACC	-0.503
GAAGGUU	2.87

Sequence	RNAcompete 7-mer binding Z-score
CACUGCA	-0.396
CACGUCC	-0.617
UGACGAA	0.082
UCGAGCU	-0.568
GAGAGAA	0.745
GUUUCUG	-0.171
AAUCACU	-0.444
AAUGGCU	0.303
UGGGUCA	1.78
GGCUAGC	0.319
GUGUCUA	-0.249
AUGUCCU	-0.772
GUGCCGA	0.017
UCGAUAU	-0.626
GAGCAGA	0.927
AUGUUGA	-0.0674
AAGAACA	0.00729
UACGGCG	-0.0187
GAAGGCG	2.14
UCCAACC	-0.805
CGCACAG	-0.269
GAGAUCU	-0.425
CCGUCGG	-0.0999
GCGUCAA	-0.126
UUGCGGA	0.368

Sequence	RNAcompete 7-mer binding Z-score
AUCUUCG	-0.886
UUCUGAA	-0.61
UACCCCU	-0.646
CUAGUAG	-0.155
AUUCUAC	-0.831
CUUAGGA	0.0333
GAGUGAC	0.703
CGCGUAG	-0.106
CAUCCGU	-0.73
GAGCAAA	0.361
UCCCGUA	-0.678
GCCAAGA	-0.428
CCGCCUU	-0.769
UCACGAA	-0.496
CAAGUGU	-0.0382
GCAGUAU	-0.113
AGGUUUA	0.426
AUUUAGU	-0.415
UGUAUGU	0.069
GUGUUCG	-0.23
UACGCAA	-0.509
UUCGCCG	-0.6
CGUCGAU	-0.191
AGCAAUA	-0.152
AGACGAU	-0.204

Sequence	RNAcompete 7-mer binding Z-score
GGGCCCG	0.14
CGGCGGC	0.391
AUUCAGG	0.235
CAAUGUG	0.378
AAGACGU	-0.0122
UCGAGCC	-0.629
GCAUCAU	-0.415
AGAGAGU	0.569
CCCUACA	-0.789
UGCAACG	-0.132
UAUAGAC	-0.259
CUUCCAA	-0.756
CUACUCC	-0.779
GGAUGUU	0.959
UUGCGCG	-0.201
UGGCCAC	-0.405
ACUAUCA	-0.694
GGAUGUA	1.7
AGUUUGC	-0.282
AAAUAAU	-0.37
GUGAUCU	-0.321
UUGUUCU	-0.789
GCUCGCU	-0.652
CACGCAC	-0.402
UCCUCUC	-0.535

Sequence	RNAcompete 7-mer binding Z-score
UAACGAU	-0.383
UAUGGUG	1.69
UAGUUUC	-0.568
GACGCAC	-0.37
CCAAUCG	-0.6
UAACCUG	-0.607
GUUGUAC	-0.152
GAACGAU	-0.149
GUGAAGU	1.08
AUAGGAG	2.4
GCGUGAU	0.222
AUUUAGA	-0.21
CACAUAC	-0.701
ACACUGA	-0.415
UUAAAUA	-0.337
UUUCGGA	0.0105
AACCAAU	-0.617
AAUUCAG	-0.496
GUCUGAU	-0.516
GAGAUUG	0.573
GUAUUUU	-0.604
UGCUCUA	-0.789
UAAGUUA	-0.204
CGGCUUG	-0.324
GAACUCU	-0.841

Sequence	RNAcompete 7-mer binding Z-score
GUCUUUG	-0.496
UUCUCAA	-0.733
UCGGGUC	0.329
AGGUAGU	1.19
CUAUAGU	-0.532
CUUUACC	-0.98
CGAAACC	-0.629
ACUAACG	-0.321
UCUACAA	-0.6
AAAUUUG	-0.347
AAAGGUA	3.05
AAGUGAC	0.576
UUCCCGC	-0.759
GGAGUCA	0.975
CCUAGAG	-0.425
GGCCCGC	-0.451
AUUAGGU	0.884
AGUCGAC	-0.21
AAAGUCU	-0.565
AUAUCCG	-0.724
CCGAAGA	-0.581
AUACGUC	-0.474
UGUCUGU	-0.62
AGAAGCA	0.0723
UGAGUCC	-0.623

Sequence	RNAcompete 7-mer binding Z-score
UAGGUGG	3.08
GAGGAGG	2.97
CUCACUA	-0.72
CUUGCGC	-0.74
GUAGUGU	1.01
UCACUAU	-0.665
UGUCUUG	-0.646
UGGAACC	0.322
AGCCAAU	-0.597
UAACCGC	-0.509
UCUUCGU	-0.85
GACCACA	-0.639
ACUGUAG	-0.155
GAGUAGC	0.293
GACUGUA	-0.383
CCCUUUC	-0.841
CGAGUGG	2
UUGCAGG	0.582
CUCGAAC	-0.74
CGUCUCC	-0.668
UUCCGGC	-0.649
UUUUGUU	-0.461
CCCCUCG	-0.344
GGUGCCU	0.222
GCCUGGG	0.703

Sequence	RNAcompete 7-mer binding Z-score
AUAGAAC	-0.116
GCCUGUC	-0.678
CAUUCCA	-0.824
GGCAUUG	0.647
ACUGUAC	-0.73
UCAAACG	-0.49
AUACAUC	-0.62
CAGUGAC	-0.506
CCACCUA	-0.526
GCUCCUC	-0.587
AGUUGGU	1.78
UAAUAUG	-0.123
UAUACCG	-0.542
AUGCACC	-0.6
GACUCUA	-0.642
AACUUCG	-0.665
AUCCUAA	-0.922
CGCUUAU	-0.649
GCCUAGA	-0.662
GCAACGU	-0.0837
CCUUUCG	-0.821
AGUGGUU	1.95
GGUUCCA	-0.116
GUCUGCG	-0.337
GGUUGUU	1.02

Sequence	RNAcompete 7-mer binding Z-score
CCCGCGG	0.488
GUGACCG	0.115
GCUGAGU	0.27
CGGGUCU	0.339
CCGAAUG	-0.604
UUAUCGU	-0.535
AGCCCUC	-0.854
GCAUAAG	0.209
GUUGACU	-0.123
AGAAUCC	-0.785
GCGAAAU	-0.00246
UUGAUCA	-0.412
UGUCAAA	-0.373
AGUUCCU	-0.792
GUCAGGG	2.07
UUAAAAU	-0.5
AUGCAAU	-0.175
